# According to the supplement of paper PMC8728848:
# This is one part of the list.
# B1: PX14375F-bfa-539-21-539 (Bacteroides fragilis) (protein)
# chain: EDFLQKDPPSSPSQSVFWQKKSDFESALAGTYSVMYSGVFSQIMPCLDGLTDNAIVQHSEGTYGWAKTIAQGDLTPNQGGFVTDIYGNCYKGIARVHILMEQLDQYTGSDISADEKKFMLAQCKALRGYFYSWLYQCYKEVPVVTQSLDLNTMYQPKATRAEVLNRVMTDYDEAISELPDKLYSDSQTSGRFTVSAVKALKARILLFDAYDSNGKAISSKMEEVLTLLQSIKGYSLAARVRDNFISEKQLASPEIMFSVRFLRPNLTHSMDLYYGAWAVLDPTRNMVDAFECTDGKPWGESPLTVRPDESILYGNDDALKKAERAKMFMNRDRRLYESVNHSMMANFVDDGFKDEEVQVNESNNKGPTGFSALKYVQPTDVTPGYSTVSDADIVVLRYAHVLLMIAEAENEAHGATTTALNAINEVRTRSGQPAIEAGISQDDLRERIRNEWRIETCFEGLRYFQLKRWKLMDKRVNGVEDPAYPGYIKVYKPAFEFFPIPQSEIDKAGGVLKQDPAYE
# Legend:
# Assay in all cases: glycan array binding signal (z-score within array); higher = stronger binding
# Conditions in all cases: glycan notation: IUPAC condensed, linker removed
# [1] = molecular target: Neu5Ac(a2-3)Gal(b1-3)[Fuc(a1-4)]GlcNAc
# How it was run: (§1)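 Columns mapping to the same glycan were averaged after glycan names were converted to IUPAC-condensed notation. The data come from 3228 arrays in the Consortium for Functional Glycomics database, limited to those with an available protein sequence. Binding is reported as a within-array Z-score averaged across arrays of one protein sequence and across linkers.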
# [2] = molecular target: Neu5Ac(a2-3)Gal(b1-3)[Fuc(a1-4)]GlcNAc(b1-3)Gal(b1-3)[Fuc(a1-4)]GlcNAc
# How it was run: as §1
# [3] = molecular target: Neu5Ac(a2-3)Gal(b1-3)[Fuc(a1-4)]GlcNAc(b1-3)Gal(b1-4)[Fuc(a1-3)]GlcNAc
# How it was run: as §1
# [4] = molecular target: Neu5Ac(a2-3)Gal(b1-3)[GlcNAc(b1-6)]GalNAc
# How it was run: as §1
# [5] = molecular target: Neu5Ac(a2-3)Gal(b1-3)[Neu5Ac(a2-6)]GalNAc
# How it was run: as §1
# [6] = molecular target: Neu5Ac(a2-3)Gal(b1-3)[Neu5Ac(a2-6)]GlcNAc(b1-3)[Fuc(a1-3)[Gal(b1-4)]GlcNAc(b1-6)]Gal(b1-4)Glc
# How it was run: as §1
# [7] = molecular target: Neu5Ac(a2-3)Gal(b1-3)]Neu5Ac(a2-3)Gal(b1-4)]GlcNAc
# How it was run: as §1
# Neu5Ac(a2-3)Gal(b1-4)Glc = molecular target: Neu5Ac(a2-3)Gal(b1-4)Glc
# How it was run: as §1
# [8] = molecular target: Neu5Ac(a2-3)Gal(b1-4)GlcNAc
# How it was run: as §1
# [9] = molecular target: Neu5Ac(a2-3)Gal(b1-4)GlcNAc(b1-2)Man
# How it was run: as §1
# [10] = molecular target: Neu5Ac(a2-3)Gal(b1-4)GlcNAc(b1-2)Man(a1-3)[GlcNAc(b1-4)][Neu5Ac(a2-3)Gal(b1-4)GlcNAc(b1-2)Man(a1-6)]Man(b1-4)GlcNAc(b1-4)GlcNAc
# How it was run: as §1
# [11] = molecular target: Neu5Ac(a2-3)Gal(b1-4)GlcNAc(b1-2)Man(a1-3)[Neu5Ac(a2-3)Gal(b1-4)GlcNAc(b1-2)Man(a1-6)]Man(b1-4)GlcNAc(b1-4)GlcNAc
# How it was run: as §1
# [12] = molecular target: Neu5Ac(a2-3)Gal(b1-4)GlcNAc(b1-2)Man(a1-3)[Neu5Ac(a2-3)Gal(b1-4)GlcNAc(b1-2)Man(a1-6)]Man(b1-4)GlcNAc(b1-4)[Fuc(a1-6)]GlcNAc
# How it was run: as §1
# [13] = molecular target: Neu5Ac(a2-3)Gal(b1-4)GlcNAc(b1-2)Man(a1-3)[Neu5Ac(a2-6)Gal(b1-4)GlcNAc(b1-2)Man(a1-6)]Man(b1-4)GlcNAc(b1-4)GlcNAc
# How it was run: as §1
# [14] = molecular target: Neu5Ac(a2-3)Gal(b1-4)GlcNAc(b1-2)[Neu5Ac(a2-3)Gal(b1-4)GlcNAc(b1-4)]Man(a1-3)[GlcNAc(b1-4)][Neu5Ac(a2-3)Gal(b1-4)GlcNAc(b1-2)[Neu5Ac(a2-3)Gal(b1-4)GlcNAc(b1-6)]Man(a1-6)]Man(b1-4)GlcNAc(b1-4)GlcNAc
# How it was run: as §1
# [15] = molecular target: Neu5Ac(a2-3)Gal(b1-4)GlcNAc(b1-2)[Neu5Ac(a2-3)Gal(b1-4)GlcNAc(b1-4)]Man(a1-3)[GlcNAc(b1-4)][Neu5Ac(a2-3)Gal(b1-4)GlcNAc(b1-4)Man(a1-6)]Man(b1-4)GlcNAc(b1-4)GlcNAc
# How it was run: as §1
# [16] = molecular target: Neu5Ac(a2-3)Gal(b1-4)GlcNAc(b1-2)[Neu5Ac(a2-3)Gal(b1-4)GlcNAc(b1-6)]Man(a1-6)[Neu5Ac(a2-3)Gal(b1-4)GlcNAc(b1-2)Man(a1-3)]Man(b1-4)GlcNAc(b1-4)GlcNAc
# How it was run: as §1
# [17] = molecular target: Neu5Ac(a2-3)Gal(b1-4)GlcNAc(b1-2)[Neu5Ac(a2-3)Gal(b1-4)GlcNAc(b1-6)]Man(a1-6)[Neu5Ac(a2-3)Gal(b1-4)GlcNAc(b1-2)Man(a1-3)][GlcNAc(b1-4)]Man(b1-4)GlcNAc(b1-4)GlcNAc
# How it was run: as §1
# [18] = molecular target: Neu5Ac(a2-3)Gal(b1-4)GlcNAc(b1-3)Gal
# How it was run: as §1
# [19] = molecular target: Neu5Ac(a2-3)Gal(b1-4)GlcNAc(b1-3)Gal(b1-3)GlcNAc
# How it was run: as §1
# [20] = molecular target: Neu5Ac(a2-3)Gal(b1-4)GlcNAc(b1-3)Gal(b1-4)GlcNAc
# How it was run: as §1
# [21] = molecular target: Neu5Ac(a2-3)Gal(b1-4)GlcNAc(b1-3)Gal(b1-4)GlcNAc(b1-2)Man(a1-3)[Neu5Ac(a2-3)Gal(b1-4)GlcNAc(b1-3)Gal(b1-4)GlcNAc(b1-2)Man(a1-6)]Man(b1-4)GlcNAc(b1-4)GlcNAc
# How it was run: as §1
# [22] = molecular target: Neu5Ac(a2-3)Gal(b1-4)GlcNAc(b1-3)Gal(b1-4)GlcNAc(b1-3)Gal(b1-4)GlcNAc
# How it was run: as §1
# [23] = molecular target: Neu5Ac(a2-3)Gal(b1-4)GlcNAc(b1-3)Gal(b1-4)GlcNAc(b1-3)Gal(b1-4)GlcNAc(b1-2)Man(a1-3)[Neu5Ac(a2-3)Gal(b1-4)GlcNAc(b1-3)Gal(b1-4)GlcNAc(b1-3)Gal(b1-4)GlcNAc(b1-2)Man(a1-6)]GalNAc
# How it was run: as §1
# [24] = molecular target: Neu5Ac(a2-3)Gal(b1-4)GlcNAc(b1-3)Gal(b1-4)GlcNAc(b1-3)GalNAc
# How it was run: as §1
# [25] = molecular target: Neu5Ac(a2-3)Gal(b1-4)GlcNAc(b1-3)Gal(b1-4)GlcNAc(b1-3)[Neu5Ac(a2-3)Gal(b1-4)GlcNAc(b1-3)Gal(b1-4)GlcNAc(b1-6)]GalNAc
# How it was run: as §1
# [26] = molecular target: Neu5Ac(a2-3)Gal(b1-4)GlcNAc(b1-3)Gal(b1-4)GlcNAc(b1-6)[Gal(b1-3)]GalNAc
# How it was run: as §1
# [27] = molecular target: Neu5Ac(a2-3)Gal(b1-4)GlcNAc(b1-3)Gal(b1-4)[Fuc(a1-3)]GlcNAc
# How it was run: as §1
# [28] = molecular target: Neu5Ac(a2-3)Gal(b1-4)GlcNAc(b1-3)GalNAc
# How it was run: as §1
# [29] = molecular target: Neu5Ac(a2-3)Gal(b1-4)GlcNAc(b1-3)[Neu5Ac(a2-3)Gal(b1-4)GlcNAc(b1-6)]GalNAc
# How it was run: as §1
binder,measurement,setting,value
B1,glycan array binding signal (z-score),[1],-1.04
same,glycan array binding signal (z-score),[2],-0.334
same,glycan array binding signal (z-score),[3],0.552
same,glycan array binding signal (z-score),[4],-0.411
same,glycan array binding signal (z-score),[5],-0.139
same,glycan array binding signal (z-score),[6],-0.546
same,glycan array binding signal (z-score),[7],-0.1
same,glycan array binding signal (z-score),Neu5Ac(a2-3)Gal(b1-4)Glc,-0.114
same,glycan array binding signal (z-score),[8],-0.265
same,glycan array binding signal (z-score),[9],0.787
same,glycan array binding signal (z-score),[10],0.245
same,glycan array binding signal (z-score),[11],0.744
same,glycan array binding signal (z-score),[12],-0.236
same,glycan array binding signal (z-score),[13],-0.279
same,glycan array binding signal (z-score),[14],-0.402
same,glycan array binding signal (z-score),[15],-0.731
same,glycan array binding signal (z-score),[16],1.17
same,glycan array binding signal (z-score),[17],-0.623
same,glycan array binding signal (z-score),[18],-0.184
same,glycan array binding signal (z-score),[19],-0.383
same,glycan array binding signal (z-score),[20],-0.491
same,glycan array binding signal (z-score),[21],0.396
same,glycan array binding signal (z-score),[22],-0.873
same,glycan array binding signal (z-score),[23],4.15
same,glycan array binding signal (z-score),[24],0.03
same,glycan array binding signal (z-score),[25],-0.526
same,glycan array binding signal (z-score),[26],-0.412
same,glycan array binding signal (z-score),[27],-0.249
same,glycan array binding signal (z-score),[28],0.216
same,glycan array binding signal (z-score),[29],-0.205
